In all, about 33,000 sequences were measured (“E-score (-0.5 to 0.5)”: median about -0.012, highest 2% from about 0.27 on). The list shows a part of the results.
Molecular target: T1, Vhr1 (UniProt P40522)
T1 sequence: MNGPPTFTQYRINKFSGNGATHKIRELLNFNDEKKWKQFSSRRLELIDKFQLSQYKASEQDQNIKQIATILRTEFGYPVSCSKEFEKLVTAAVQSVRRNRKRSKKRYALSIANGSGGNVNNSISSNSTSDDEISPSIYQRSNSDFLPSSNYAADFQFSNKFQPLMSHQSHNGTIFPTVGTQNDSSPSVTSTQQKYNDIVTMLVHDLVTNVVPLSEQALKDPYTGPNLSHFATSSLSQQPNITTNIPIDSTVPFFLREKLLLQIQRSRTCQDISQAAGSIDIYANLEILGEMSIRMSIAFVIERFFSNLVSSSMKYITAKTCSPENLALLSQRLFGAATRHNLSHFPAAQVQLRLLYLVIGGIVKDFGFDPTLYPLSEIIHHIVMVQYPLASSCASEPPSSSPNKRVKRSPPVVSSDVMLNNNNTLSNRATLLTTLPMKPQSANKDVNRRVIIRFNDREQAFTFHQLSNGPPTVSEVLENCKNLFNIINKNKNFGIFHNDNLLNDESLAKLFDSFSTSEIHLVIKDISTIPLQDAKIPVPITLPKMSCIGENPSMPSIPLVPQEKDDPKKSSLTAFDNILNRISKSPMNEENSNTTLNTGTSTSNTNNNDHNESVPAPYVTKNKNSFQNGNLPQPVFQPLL
Assay: PBM E-score (8-mer binding enrichment) (E-score (-0.5 to 0.5)); higher = stronger / more preferred TF binding; most listed sequences are background and not binding sites
Settings: protein concentration: 200 nM; construct: GST-full length
Experimental: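 Universal 'all 10-mer' protein binding microarrays (Agilent AMADID 015681) probed with GST-tagged S. cerevisiae TFs (full-length or DBD) made by in vitro transcription/translation (PURExpress), about 100-200 nM. Bound TF was detected with fluorescent anti-GST. Each ungapped 8-mer (which stands for itself and its reverse complement) is scored by the PBM enrichment score (E-score), a modified Wilcoxon-Mann-Whitney statistic from -0.5 to +0.5, computed with the Universal PBM Analysis Suite. Scale: above 0.35 generally sequence-specific binding.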

Sequence	PBM E-score
ACGGTCCC	-0.237
CTGGAACA	-0.00538
GCGCTGCA	-0.0157
GTCCCGCA	-0.139
CGCGCTGC	-0.0742
CCCGCTGC	0.0434
ACAGGGCA	-0.0833
GTCTTATA	-0.0174
GGTATTCA	0.00155
CACCTGTC	0.23
AGCACTCC	0.0396
CAGATAAG	-0.0755
ACGCGAAA	-0.0435
CTCGATCA	0.0844
AGTTGATA	0.122
AGTCACTC	0.428
GACTCACA	0.44
CTGAACAG	-0.0135
GAACAAGC	-0.0662
ATCATTAG	0.148
GAAAAGCC	-0.12
ATCATACA	0.264

Sequence	PBM E-score
ACCTGGTA	-0.00726
ATTAGGTG	0.133
ACAGCTAA	-0.0476
AGGTCAGG	0.0385
ATCTGGAC	0.0267
GGATTTCA	0.00907
ATTTTAGC	-0.141
TATGGGCA	0.131
CGCGTGTC	0.213
GCGGCCCC	-0.0525
TGTTTAAA	-0.122
AGGGCTAC	-0.0114
AGCAGCTC	-0.25
ATGGGTCC	0.0892
CAGATCGC	0.0959
AGCGGGAG	-0.064
ATATCCCC	0.132
GGGTCACC	0.0897
CGCTCATC	-0.0759
GCGGAAGA	0.0151
CTTGGTCA	-0.133
GCACGCTA	-0.121

Sequence	PBM E-score
GCGAATCA	0.345
GCTTAGAC	-0.36
CCAAGGCC	-0.199
ATGAGTGG	0.162
ACGCGCAT	0.0217
CAATAAAG	0.048
CCCCTGGA	-0.121
TAAGAGCA	-0.00784
ATAACGTA	0.112
ATGCTGTG	0.116
CACGAACA	0.168
ATGTTTGA	0.028
TCCTGGCA	0.1
CGCCGGGA	0.0158
GCGCTCCC	0.0224
CATGTATA	0.28
AGGTCTCG	-0.0622
GTTTCGAA	-0.151
AGCCCCCA	-0.281
TCCTTGCA	-0.0963
GTACGAAC	0.152
GCAGAACA	0.091

Sequence	PBM E-score
GACCAGAA	0.0475
GCGAGGCC	-0.143
ACCAACCG	0.00393
GCCGGGCC	-0.0591
ACGAATAA	0.0738
GGGCCTTA	-0.279
CTACTGGA	0.0706
TCCGTGAA	-0.165
ACGATCGC	-0.0057
AGCGAACA	-0.103
AGGGACAA	-0.142
GTAAAGGA	-0.0902
CACTTGAG	0.0278
ACCCCCTA	-0.206
AGATATCC	0.147
AAATGATT	0.187
ATGTCAGA	-0.0499
AGGGAGCC	-0.0866
ACAATCAC	0.275
CTGGCTAA	0.0471

Source: the supplement of paper PMC3334620
